# In the supplement of paper PMC8728848:
# This is one part of the list.
# B1: 7WC (Trifolium repens) (protein)
# chain: MGTITSYAVVFDAGSTGSRVHVYHFDQNLDLLHIGKDVEFYNKIQPGLSAYADNPEQAAKSLIPLLEQAENVVPEDFHSKTPIRLGATAGLRLLDGDASERILQAVRDMLNNKSTFNVQPDAVSIIDGTQEGSYLWVTINYVLGNLGKRFTNTVGVIDLGGGSVQMAYAVSKKTARNAPKVTDGEDPYIKKIVLKGKPYDLYVHSYLHFGREASRAEILKVTHGSASPCILAGFDGIYTYSGEEFKASAPTSGANFDKCKKIIQKALKLDYPCPYQNCTFGGIWNGGGGSGQKKLFAASSFFYLPQDVGMVDPNKSNLKLRPVDLENKAKIVCTLNVEDVKSAYPLLEKFNIVPYACMDLIYQYELLVDGFGLDPLQEITAGEKIEYQEALVDAAWALGNAVEAVLLLPKFERLMYFVVEHHHHHH
# Columns and labels:
# Assay in all cases: glycan array binding signal (z-score within array); higher = stronger binding
# Settings in all cases: glycan notation: IUPAC condensed, linker removed
# [1] = biological target: Gal(b1-4)GlcNAc(b1-3)[Gal(b1-4)GlcNAc(b1-6)]GalNAc
# Procedure, shortened: (§1)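 The binding signal is a Z-score computed within each array and averaged over linkers. Arrays of the same protein sequence at different concentrations or buffers were also averaged together. Data originate from 3228 arrays in the Consortium for Functional Glycomics database, kept only where the protein sequence was available.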
# [2] = biological target: Gal(b1-4)GlcNAc(b1-6)GalNAc
# Procedure, shortened: as §1
# [3] = biological target: Gal(b1-4)GlcNAc(b1-6)[Gal(b1-3)]GalNAc
# Procedure, shortened: as §1
# [4] = biological target: Gal(b1-4)GlcNAc(b1-6)[Gal(b1-3)]GlcNAc
# Procedure, shortened: as §1
# Gal3S(b1-3)GalNAc = biological target: Gal3S(b1-3)GalNAc
# Procedure, shortened: as §1
# Gal3S(b1-3)GlcNAc = biological target: Gal3S(b1-3)GlcNAc
# Procedure, shortened: as §1
# [5] = biological target: Gal3S(b1-3)[Fuc(a1-4)]GlcNAc
# Procedure, shortened: as §1
# Gal3S(b1-4)Glc = biological target: Gal3S(b1-4)Glc
# Procedure, shortened: as §1
# Gal3S(b1-4)Glc6S = biological target: Gal3S(b1-4)Glc6S
# Procedure, shortened: as §1
# Gal3S(b1-4)GlcNAc = biological target: Gal3S(b1-4)GlcNAc
# Procedure, shortened: as §1
# Gal3S(b1-4)GlcNAc6S = biological target: Gal3S(b1-4)GlcNAc6S
# Procedure, shortened: as §1
# Gal3S6S(b1-4)GlcNAc = biological target: Gal3S6S(b1-4)GlcNAc
# Procedure, shortened: as §1
# Gal3S6S(b1-4)GlcNAc6S = biological target: Gal3S6S(b1-4)GlcNAc6S
# Procedure, shortened: as §1
# Gal4S(b1-4)GlcNAc = biological target: Gal4S(b1-4)GlcNAc
# Procedure, shortened: as §1
# Gal4S6S(b1-4)GlcNAc = biological target: Gal4S6S(b1-4)GlcNAc
# Procedure, shortened: as §1
# Gal6S(b1-4)Glc = biological target: Gal6S(b1-4)Glc
# Procedure, shortened: as §1
# Gal6S(b1-4)Glc6S = biological target: Gal6S(b1-4)Glc6S
# Procedure, shortened: as §1
# Gal6S(b1-4)GlcNAc = biological target: Gal6S(b1-4)GlcNAc
# Procedure, shortened: as §1
# GalNAc(a1-3)Gal = biological target: GalNAc(a1-3)Gal
# Procedure, shortened: as §1
# GalNAc(a1-3)GalNAc = biological target: GalNAc(a1-3)GalNAc
# Procedure, shortened: as §1
# [6] = biological target: GalNAc(b1-3)Gal(a1-4)Gal(b1-4)GlcNAc
# Procedure, shortened: as §1
# GalNAc(b1-4)GlcNAc = biological target: GalNAc(b1-4)GlcNAc
# Procedure, shortened: as §1
# Glc(a1-4)Glc = biological target: Glc(a1-4)Glc
# Procedure, shortened: as §1
# Glc(a1-6)Glc(a1-6)Glc = biological target: Glc(a1-6)Glc(a1-6)Glc
# Procedure, shortened: as §1
# Glc(b1-4)Glc = biological target: Glc(b1-4)Glc
# Procedure, shortened: as §1
# Glc(b1-6)Glc = biological target: Glc(b1-6)Glc
# Procedure, shortened: as §1
# GlcA(b1-3)Gal = biological target: GlcA(b1-3)Gal
# Procedure, shortened: as §1
# GlcA(b1-6)Gal = biological target: GlcA(b1-6)Gal
# Procedure, shortened: as §1
# [7] = biological target: GlcNAc(a1-3)Gal(b1-4)GlcNAc
# Procedure, shortened: as §1
# [8] = biological target: GlcNAc(a1-6)Gal(b1-4)GlcNAc
# Procedure, shortened: as §1
# [9] = biological target: GlcNAc(b1-2)Gal(b1-3)GlcNAc
# Procedure, shortened: as §1
# [10] = biological target: GlcNAc(b1-2)Man(a1-3)[GlcNAc(b1-2)Man(a1-6)]Man(b1-4)GlcNAc(b1-4)GlcNAc
# Procedure, shortened: as §1
# GlcNAc(b1-3)Gal = biological target: GlcNAc(b1-3)Gal
# Procedure, shortened: as §1
# [11] = biological target: GlcNAc(b1-3)Gal(b1-3)GalNAc
# Procedure, shortened: as §1
# GlcNAc(b1-3)Gal(b1-4)Glc = biological target: GlcNAc(b1-3)Gal(b1-4)Glc
# Procedure, shortened: as §1
# [12] = biological target: GlcNAc(b1-3)Gal(b1-4)GlcNAc
# Procedure, shortened: as §1
# [13] = biological target: GlcNAc(b1-3)Gal(b1-4)GlcNAc(b1-3)Gal(b1-4)GlcNAc
# Procedure, shortened: as §1
binder,measurement,setting,value
B1,glycan array binding signal (z-score),[1],-0.194
same,glycan array binding signal (z-score),[2],-0.08
same,glycan array binding signal (z-score),[3],-0.035
same,glycan array binding signal (z-score),[4],0.144
same,glycan array binding signal (z-score),Gal3S(b1-3)GalNAc,0.371
same,glycan array binding signal (z-score),Gal3S(b1-3)GlcNAc,0.078
same,glycan array binding signal (z-score),[5],-0.208
same,glycan array binding signal (z-score),Gal3S(b1-4)Glc,-0.3
same,glycan array binding signal (z-score),Gal3S(b1-4)Glc6S,-0.093
same,glycan array binding signal (z-score),Gal3S(b1-4)GlcNAc,-0.308
same,glycan array binding signal (z-score),Gal3S(b1-4)GlcNAc6S,-0.334
same,glycan array binding signal (z-score),Gal3S6S(b1-4)GlcNAc,-0.404
same,glycan array binding signal (z-score),Gal3S6S(b1-4)GlcNAc6S,-0.418
same,glycan array binding signal (z-score),Gal4S(b1-4)GlcNAc,-0.335
same,glycan array binding signal (z-score),Gal4S6S(b1-4)GlcNAc,0.174
same,glycan array binding signal (z-score),Gal6S(b1-4)Glc,0.086
same,glycan array binding signal (z-score),Gal6S(b1-4)Glc6S,0.274
same,glycan array binding signal (z-score),Gal6S(b1-4)GlcNAc,0.128
same,glycan array binding signal (z-score),GalNAc(a1-3)Gal,0.176
same,glycan array binding signal (z-score),GalNAc(a1-3)GalNAc,0.205
same,glycan array binding signal (z-score),[6],-0.367
same,glycan array binding signal (z-score),GalNAc(b1-4)GlcNAc,-0.1
same,glycan array binding signal (z-score),Glc(a1-4)Glc,2.65
same,glycan array binding signal (z-score),Glc(a1-6)Glc(a1-6)Glc,1.41
same,glycan array binding signal (z-score),Glc(b1-4)Glc,2.14
same,glycan array binding signal (z-score),Glc(b1-6)Glc,2.4
same,glycan array binding signal (z-score),GlcA(b1-3)Gal,2.23
same,glycan array binding signal (z-score),GlcA(b1-6)Gal,-0.371
same,glycan array binding signal (z-score),[7],0.021
same,glycan array binding signal (z-score),[8],0.363
same,glycan array binding signal (z-score),[9],0.011
same,glycan array binding signal (z-score),[10],0.88
same,glycan array binding signal (z-score),GlcNAc(b1-3)Gal,0.343
same,glycan array binding signal (z-score),[11],0.3
same,glycan array binding signal (z-score),GlcNAc(b1-3)Gal(b1-4)Glc,0.503
same,glycan array binding signal (z-score),[12],-0.367
same,glycan array binding signal (z-score),[13],-0.327
